This note sets out measurements from article PMC9408373.

By UniProt entry, the sequences of proteins in these tests, tags left out. Where a name states a change or a piece, a line headed by the entry shows the natural chain unless it says otherwise. Chains listed by the source or under a name are the forms on record and can include a tag or linker. Residues count along the entry.
human CDC42 (aa 1-178), wild type (P60953, residues 1-178): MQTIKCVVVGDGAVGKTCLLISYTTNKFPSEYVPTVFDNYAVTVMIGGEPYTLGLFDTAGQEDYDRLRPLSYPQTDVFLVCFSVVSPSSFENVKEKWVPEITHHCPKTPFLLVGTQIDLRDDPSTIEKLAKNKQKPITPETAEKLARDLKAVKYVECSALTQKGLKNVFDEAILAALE
human CDC42 (aa 1-178) Q61L (P60953, form named): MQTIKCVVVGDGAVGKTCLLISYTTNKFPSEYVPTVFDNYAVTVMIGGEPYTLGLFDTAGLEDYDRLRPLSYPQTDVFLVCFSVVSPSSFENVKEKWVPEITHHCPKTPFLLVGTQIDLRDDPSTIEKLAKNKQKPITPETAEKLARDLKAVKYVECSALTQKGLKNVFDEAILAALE
GST-CDC42 S124D (P60953, form named): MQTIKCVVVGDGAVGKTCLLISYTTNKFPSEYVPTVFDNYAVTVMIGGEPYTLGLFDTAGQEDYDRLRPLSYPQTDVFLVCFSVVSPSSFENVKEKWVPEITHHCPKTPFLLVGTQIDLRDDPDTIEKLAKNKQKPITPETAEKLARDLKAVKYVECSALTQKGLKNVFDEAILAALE
GST-CDC42 A130K (P60953, form named): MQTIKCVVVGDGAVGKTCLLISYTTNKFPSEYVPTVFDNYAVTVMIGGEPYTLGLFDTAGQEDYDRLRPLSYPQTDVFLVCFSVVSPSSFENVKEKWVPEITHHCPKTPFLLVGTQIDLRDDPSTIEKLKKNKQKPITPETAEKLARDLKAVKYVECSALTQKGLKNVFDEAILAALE
UniProt P46940: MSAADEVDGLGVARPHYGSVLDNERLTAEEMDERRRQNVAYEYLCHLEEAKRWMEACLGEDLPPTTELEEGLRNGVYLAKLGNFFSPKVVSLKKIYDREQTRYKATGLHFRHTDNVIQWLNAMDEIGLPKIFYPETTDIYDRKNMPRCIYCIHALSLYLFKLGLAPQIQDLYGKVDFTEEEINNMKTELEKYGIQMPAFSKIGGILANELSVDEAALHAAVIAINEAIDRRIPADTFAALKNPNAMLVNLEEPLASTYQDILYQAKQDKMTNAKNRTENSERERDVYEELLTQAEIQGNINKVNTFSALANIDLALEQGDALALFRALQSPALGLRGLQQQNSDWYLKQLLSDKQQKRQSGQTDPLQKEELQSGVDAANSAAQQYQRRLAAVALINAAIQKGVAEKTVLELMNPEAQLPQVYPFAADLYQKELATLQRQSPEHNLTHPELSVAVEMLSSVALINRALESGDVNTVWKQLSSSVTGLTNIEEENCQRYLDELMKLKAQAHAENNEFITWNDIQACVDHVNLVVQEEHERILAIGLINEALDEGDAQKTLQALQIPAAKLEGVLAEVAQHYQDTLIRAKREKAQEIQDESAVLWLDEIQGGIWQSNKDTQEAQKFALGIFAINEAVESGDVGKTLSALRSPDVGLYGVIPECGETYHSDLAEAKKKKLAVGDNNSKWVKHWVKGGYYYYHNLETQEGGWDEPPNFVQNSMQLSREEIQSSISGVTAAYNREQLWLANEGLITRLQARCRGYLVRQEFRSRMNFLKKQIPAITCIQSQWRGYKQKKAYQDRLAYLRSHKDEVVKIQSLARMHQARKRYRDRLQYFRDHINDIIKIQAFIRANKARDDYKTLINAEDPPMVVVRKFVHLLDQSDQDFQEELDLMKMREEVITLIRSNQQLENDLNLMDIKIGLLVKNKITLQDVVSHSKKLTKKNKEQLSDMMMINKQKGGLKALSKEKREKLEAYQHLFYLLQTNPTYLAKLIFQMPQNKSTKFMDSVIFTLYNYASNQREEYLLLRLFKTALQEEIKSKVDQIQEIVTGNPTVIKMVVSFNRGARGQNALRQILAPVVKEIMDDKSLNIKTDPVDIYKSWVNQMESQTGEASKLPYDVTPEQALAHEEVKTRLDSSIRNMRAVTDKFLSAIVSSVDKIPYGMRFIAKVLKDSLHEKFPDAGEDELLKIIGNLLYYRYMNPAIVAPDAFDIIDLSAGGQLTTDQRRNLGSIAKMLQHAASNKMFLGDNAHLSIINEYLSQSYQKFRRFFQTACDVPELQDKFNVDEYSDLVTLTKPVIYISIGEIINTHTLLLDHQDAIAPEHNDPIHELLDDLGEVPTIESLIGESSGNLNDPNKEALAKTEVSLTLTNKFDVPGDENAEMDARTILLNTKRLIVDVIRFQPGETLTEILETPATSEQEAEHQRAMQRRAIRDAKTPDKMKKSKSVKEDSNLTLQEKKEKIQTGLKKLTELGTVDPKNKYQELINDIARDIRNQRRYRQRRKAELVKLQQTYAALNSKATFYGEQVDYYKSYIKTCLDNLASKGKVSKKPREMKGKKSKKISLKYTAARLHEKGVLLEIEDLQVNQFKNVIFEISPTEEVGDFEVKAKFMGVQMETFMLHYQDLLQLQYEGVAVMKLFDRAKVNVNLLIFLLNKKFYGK

Experiment [1] addresses human CDC42 (aa 1-178) Q61L (human) (UniProt P60953). The experiment can be described thus: fluorescence polarisation; 1 µM mant-GDP-bound CDC42 in the cuvette, IQGAP protein titrated; quadratic ligand binding equation; both purified. For orientation: In fluorescence polarisation assays a small probe gives low polarisation when free and higher when bound to something large.

The target of experiment [2] is human CDC42 (aa 1-178), wild type (human) (UniProt P60953). The experiment is described as above.
Experiment [3] concerns the target GST-CDC42 S124D (human) (UniProt P60953). The experiment is described as follows: pull-down; GppNHp-bound GST-GTPase on glutathione agarose beads, incubated with HEK293 lysate 1 h at 4 °C; blot with anti-IQGAP1; only the target purified.
Experiment [4] addresses GST-CDC42 A130K (human) (UniProt P60953). Described as above.
Experiment [5] has as its target GST-CDC42 wild type (human) (UniProt P60953). The experiment is described as above.
In experiment [6] the target is GST-CDC42 S124D (human) (UniProt P60953). The experiment is described as follows: pull-down; GDP-bound GST-GTPase on glutathione agarose beads, incubated with HEK293 lysate 1 h at 4 °C; blot with anti-IQGAP1; only the target purified.
For experiment [7], the target named is GST-CDC42 A130K (human) (UniProt P60953). The description is as above.
The target in experiment [8] is GST-CDC42 wild type (human) (UniProt P60953). Described as above.
Experiment [9] deals with human CDC42 (aa 1-178), wild type (human) (UniProt P60953). The experiment is described as follows: fluorescence polarisation; 1 µM mant-GppNHp-bound CDC42 in the cuvette, IQGAP protein titrated; quadratic ligand binding equation; both purified.

No constants are given. Whether binding was seen depends on the method and setting. For some of these results: Binding seen in cells or lysates may run through a third protein. Some binding calls cover weakened binding; strength is not graded here.

On to “human IQGAP1 GRD1 (aa 962-1345) (from UniProt P46940 962-1345) (domain or fragment)”, for which the binding result in [1] and in experiment [2] was “binds weakly” in each case.

Turning to “IQGAP1 full-length, endogenous (from UniProt P46940 1-1657)”, the binding result in [3] was “binds weakly”; in experiment [4], “no binding”; in experiment [5] it was “binds”; in experiment [6] it was “binds weakly”; in experiment [7] it was “no binding”; in experiment [8], “binds”.

As to “human IQGAP1 CT (aa 1576-1657) (from UniProt P46940 1576-1657) (domain or fragment)”, the binding entry in [9] and in [2] was “binds weakly” throughout.
